± gives the standard deviation of the averaged measurements. The list shows a part of the results.
What follows are sequences tested on PfAP2-I AP2 domain 3 (GST-tagged) (assay: gcPBM binding intensity (ln(normalized median fluorescence intensity)); higher = stronger DNA binding).
In short: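 Binding intensity is defined as the maximum Masliner-normalised natural-log median intensity across replicate spots for either probe orientation. It was measured on an Agilent 4 × 180k array of primer-extended double-stranded 36-bp intergenic genomic probes and negative controls, to which GST-tagged P. falciparum DNA-binding domains made in E. coli were applied for 1 h in 1× PBS with 1% milk, 0.2 mg/ml BSA, 0.5% salmon testes DNA and 0.03% Triton X-100. Detection was by Alexa488 anti-GST antibody and scanning at 488 nm.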
For “ATTGGGTACAAATACACACACATATAAATATTAATA [CACACA_site7173]”, the “gcPBM binding intensity (ln)” value was 8.01 ± 0.19. “TATTATTTTATGAATACACACATATACGAAAATATT [CACACA_site964]” was tested, and the “gcPBM binding intensity (ln)” value was 7.66 ± 0.52. With “AATTATTGTATGCTATACGTTCCCCTCTAATTTATC [CACACA_negctrl_site1052]” the “gcPBM binding intensity (ln)” value was 7.82 ± 0.92. For “TATTTTTATATAATGTGTACTTATACCTTATTTTTT [XGTACX_site1658]”, the “gcPBM binding intensity (ln)” value was 7.76 ± 0.52. In the case of “AAAAAAAAAAAAAAAACACACAATAAAGTAAAATTT [CACACA_site135]”, the “gcPBM binding intensity (ln)” value is reported as 8.73 ± 0.54. With “ATATATAAATTTTAGTGTACATTAATTTTTTTTTTT [XGTACX_site7782]” the “gcPBM binding intensity (ln)” value was 7.74 ± 0.42. In the case of “TAAATATATTAAGCTTGTACATGAAAAAAAAAAAAA [XGTACX_site3264]”, the “gcPBM binding intensity (ln)” value is reported as 8.1 ± 0.59. “AGTCTGAATAAAATTACACACATATACATATATATA [CACACA_site1780]” was tested, and the “gcPBM binding intensity (ln)” value was 8.09 ± 0.76. For “TATGTATATAAATTAACACACATATGTGGTTAATAG [CACACA_site3143]”, the “gcPBM binding intensity (ln)” value was 7.8 ± 0.52. “TACCTTTTTTGTTTTATGCACACCATATAACCAAGG [CACACA_site30]” was tested, and the “gcPBM binding intensity (ln)” value was 10.3 ± 0.33. In the case of “TAAAAAAAAAAAAAAGCATGCTATATTATATTACAC [TGCATGCA_site241]”, the “gcPBM binding intensity (ln)” value is reported as 7.92 ± 0.5. “TTTTTTTTTCCGTGTTGTACAAAAAAAAAGATTTTG [XGTACX_site3925]” was tested, and the “gcPBM binding intensity (ln)” value was 8.09 ± 0.54. For “AAGAAATATTTATACACACACACAAACATATAAATA [CACACA_site6981]”, the “gcPBM binding intensity (ln)” value was 8.05 ± 0.47. In the case of “TATAACTATTCACAGACATGCACATAATAACAATAA [TGCATGCA_site207]”, the “gcPBM binding intensity (ln)” value is reported as 8.37 ± 0.57. For “TATATATATATAGACACACACACACCCATATATATA [CACACA_site4117]”, the “gcPBM binding intensity (ln)” value was 9.295 ± 0.007. In the case of “TATAACTATAAAAGTAGTACACATATATATTATATA [XGTACX_site1391]”, the “gcPBM binding intensity (ln)” value is reported as 8.02 ± 0.092. For “TTTTTTTAAATATACACACACATTTATACCTATATA [CACACA_site7572]”, the “gcPBM binding intensity (ln)” value was 7.93 ± 0.49. In the case of “TTCCTAATTGACAACACACACAACAAAAAAGGGATT [CACACA_site1279]”, the “gcPBM binding intensity (ln)” value is reported as 8.07 ± 0.66. For “AATGGTTTAAAATACTGTACATATATATAAAAGTAA [XGTACX_site6187]”, the “gcPBM binding intensity (ln)” value was 7.91 ± 0.54. With “CACTAAAATAAACACACACACACACCGATATATATA [CACACA_site9379]” the “gcPBM binding intensity (ln)” value was 8.24 ± 0.68. For “TTAATTTTATTTTTTTGTACACATAAATATTATAAA [XGTACX_site4680]”, the “gcPBM binding intensity (ln)” value was 8.02 ± 0.34. For “CTTGTCATTTTGCACACACACATGTATAGGTTATTA [CACACA_site7431]”, the “gcPBM binding intensity (ln)” value was 9.9 ± 0.17. For “TATATTTATATGATAACACACATAAATTATACATTT [CACACA_site1671]”, the “gcPBM binding intensity (ln)” value was 7.47 ± 0.45. In the case of “AAAATAATAATTAATACATGCATTAATTCTTTTTTT [TGCATGCA_site741]”, the “gcPBM binding intensity (ln)” value is reported as 7.47 ± 0.71. For “ACTTCATTTTTTTTATGTACACAGAAGATTTACAAA [XGTACX_site4021]”, the “gcPBM binding intensity (ln)” value was 8.44 ± 0.47. In the case of “AGGAAAATAGAAAAAGCACACATATATTTTGGAATG [CACACA_site8080]”, the “gcPBM binding intensity (ln)” value is reported as 7.99 ± 0.64. “ATTTATTTATTTTTTTGTACGAATGTTGCACATATA [XGTACX_site4101]” was tested, and the “gcPBM binding intensity (ln)” value was 8.67 ± 0.099. For “CATATATTATTTAATAGTACATATAAAAGAAAAAAA [XGTACX_site4643]”, the “gcPBM binding intensity (ln)” value was 7.78 ± 0.34. With “TATATAAATAAATGTGTACACACATTAAAATCAAAC [CACACA_site8733]” the “gcPBM binding intensity (ln)” value was 8.2 ± 0.2. “TATATACATATATATACACACATATATATATTTTAT [CACACA_site3788]” was tested, and the “gcPBM binding intensity (ln)” value was 7.54 ± 0.49. In the case of “GAAATAATTGTTAAAGGTACACAATGCATATACAAT [XGTACX_site238]”, the “gcPBM binding intensity (ln)” value is reported as 8.04 ± 0.64. “ATAATATATACTAAAAGTACATATTATAATAAATTA [XGTACX_site6749]” was tested, and the “gcPBM binding intensity (ln)” value was 7.3 ± 0.27. For “GAATGAAAATAAAATTGTACACATATCTATATCTAT [XGTACX_site2642]”, the “gcPBM binding intensity (ln)” value was 7.67 ± 0.46. With “TTTAATTAGGATAATTGTACTGAACTAAGTATATTT [XGTACX_site1871]” the “gcPBM binding intensity (ln)” value was 7.59 ± 0.59. In the case of “AAAAAAAAAAAAAGTTGTACATTATTTTCCTAATTC [XGTACX_site7998]”, the “gcPBM binding intensity (ln)” value is reported as 7.76 ± 0.56. With “TATATTATATGTATTGCACACCTTCAACAACTACTT [CACACA_site8121]” the “gcPBM binding intensity (ln)” value was 10.3 ± 0.23. For “ATACATATATATGTGTGTACATATGTGTATACATTT [XGTACX_site6544]”, the “gcPBM binding intensity (ln)” value was 7.96 ± 0.45. “TTTTATAAATCTAAACGTATCTAAATGAATAATTAA [GTGCAC_negctrl_site44]” was tested, and the “gcPBM binding intensity (ln)” value was 7.37 ± 0.48. In the case of “ATATGTATTAAGTGTACACATATAATGGGTTTGTTA [CACACA_site5682]”, the “gcPBM binding intensity (ln)” value is reported as 7.96 ± 0.45. For ATATATGTACAAATTGTGCGCAATAATTTTGTCTTT, the “gcPBM binding intensity (ln)” value was 9.06 ± 0.33. “TCTTTATGTAAGGTCTTCCACAAAAAAATTAAAAAA [TGCATGCA_negctrl_site229]” was tested, and the “gcPBM binding intensity (ln)” value was 7.79 ± 0.41. “GAAAAATTAATAAATAAACACACATATATATATATA [CACACA_site8835]” was tested, and the “gcPBM binding intensity (ln)” value was 9.68 ± 0.57. In the case of “ATATATTATAGAGGTGTGCACTACATACATTATAAT [GTGCAC_site9991]”, the “gcPBM binding intensity (ln)” value is reported as 10.9 ± 0.4. For “ATAGAAACATATTGACGTACAGTATAATAATACAGT [XGTACX_site197]”, the “gcPBM binding intensity (ln)” value was 8.16 ± 0.42. “AAATCAACTTATTTTTGTACATATATTTATTATATA [XGTACX_site2925]” was tested, and the “gcPBM binding intensity (ln)” value was 8.16 ± 0.36. “GAATACATAATAACATGTACACACATTCTTCTATAA [XGTACX_site8725]” was tested, and the “gcPBM binding intensity (ln)” value was 7.89 ± 0.58. With “TATATATATAGAAATGCATGTTAATAAAAGTTATAA [TGCATGCA_site947]” the “gcPBM binding intensity (ln)” value was 8.56 ± 0.67. With “TATCATAAAAAATATACACACAAAGGATATTTATAT [CACACA_site6841]” the “gcPBM binding intensity (ln)” value was 7.69 ± 0.81. “TATGAACACCAACACACACACAAAAAAAAAAAAAAA [CACACA_site2013]” was tested, and the “gcPBM binding intensity (ln)” value was 8.1 ± 0.38. In the case of “TATATATTTAATTTCACACATATATATAATTATTAT [CACACA_site4936]”, the “gcPBM binding intensity (ln)” value is reported as 7.71 ± 0.4. “TTTTTTATTTTAAAAACATGCATAAAATATAATAGT [TGCATGCA_site762]” was tested, and the “gcPBM binding intensity (ln)” value was 8.16 ± 0.45. For “AGATAAAAAAAGTACACACACACATATATTTATATA [CACACA_site7437]”, the “gcPBM binding intensity (ln)” value was 7.98 ± 0.2. “ATACACACTTAAAAAAGTACTTAACTACATGAATTG [XGTACX_site1203]” was tested, and the “gcPBM binding intensity (ln)” value was 7.77 ± 0.54. “ATATTATATATAAAATGTACATTTAAAAATATTATA [XGTACX_site889]” was tested, and the “gcPBM binding intensity (ln)” value was 7.54 ± 0.23. For “TTGTTTTCTTATTATTACTACAATACTTAAGTCAGA [TGCATGCA_negctrl_site184]”, the “gcPBM binding intensity (ln)” value was 7.8 ± 0.39. With “TATTTATTTATGGACACACATACAAATCTTCCAGAC [CACACA_site942]” the “gcPBM binding intensity (ln)” value was 7.92 ± 0.43. With “TAATCATAACTTGATACGCACACGTTATATAAATAA [CACACA_site1579]” the “gcPBM binding intensity (ln)” value was 7.92 ± 0.3.

Source: the supplement of paper PMC11417369
